From PMC12820563, “FoxP3 forms a head-to-head dimer in vivo and stabilizes its multimerization on adjacent microsatellites”
The list shows a part of the results.

Target: T1, MBP-FoxP1dN (Mus musculus, UniProt P58462 326-579)
T1 sequence: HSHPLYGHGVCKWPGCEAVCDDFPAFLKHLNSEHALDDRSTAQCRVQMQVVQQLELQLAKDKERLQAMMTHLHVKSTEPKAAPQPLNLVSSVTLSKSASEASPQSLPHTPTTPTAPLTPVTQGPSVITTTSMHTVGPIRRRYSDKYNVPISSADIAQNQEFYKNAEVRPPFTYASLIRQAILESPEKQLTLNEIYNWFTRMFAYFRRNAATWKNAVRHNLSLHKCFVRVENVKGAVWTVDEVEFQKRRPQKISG
Experiment: PD-seq (MBP pull-down with sequencing); 20 mM Tris-HCl pH 7.5, 100 mM NaCl, 1.5 mM MgCl2, 0.4 uM protein, 0.1 uM dsDNA library, 30 min, room temperature, amylose pull-down; high values mean tight binding
Conditions: protein: recombinant; tags: His6-MBP; chain copies: 2; dsDNA, one strand shown
Summary of the method: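 A degenerate double-stranded DNA library, filled in with Klenow, was added at 0.1 µM to 0.4 µM His6-MBP-tagged mouse FoxP3 or FoxP1 fragment lacking the N-terminus, expressed in E. coli. Incubation lasted 30 min at room temperature in Tris pH 7.5 buffer with NaCl and MgCl2, after which complexes were collected on amylose resin, washed three times, digested with proteinase K to free the DNA, barcoded by PCR and sequenced by Illumina. Binding is the pooled-replicate reads-per-million enrichment of pull-down over input.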

Sequence | binding signal
GATGATTGTTCTCCCAGCTGATGAATTTTGAGTCTCGAGTAAACAAATTTTCCTAATCTTTCTGTTCAAGCGCCATCTAC | 0.825 RPM ratio (pull-down/input)
GATGATTGTTCTCCCAGCTGATGAATTAGCTCTTTCGAGTAAACAAATTTTCCTAATCTTTCTGTTCAAGCGCCATCTAC | 0.891 RPM ratio (pull-down/input)
GATGATTGTTCTCCCAGCTGATGAATTGCAGTCCTCGAGTAAACAAATTTTCCTAATCTTTCTGTTCAAGCGCCATCTAC | 0.935 RPM ratio (pull-down/input)
GATGATTGTTCTCCCAGCTGATGAATTGCATATTTCGAGTAAACAAATTTTCCTAATCTTTCTGTTCAAGCGCCATCTAC | 1.4 RPM ratio (pull-down/input)
GATGATTGTTCTCCCAGCTGATGAATTTGGCATCTCGAGTAAACAAATTTTCCTAATCTTTCTGTTCAAGCGCCATCTAC | 1.05 RPM ratio (pull-down/input)
GATGATTGTTCTCCCAGCTGATGAATTCCCTGAGTCGAGTAAACAAATTTTCCTAATCTTTCTGTTCAAGCGCCATCTAC | 0.779 RPM ratio (pull-down/input)
GATGATTGTTCTCCCAGCTGATGAATTCTGTGCATCGAGTAAACAAATTTTCCTAATCTTTCTGTTCAAGCGCCATCTAC | 1.2 RPM ratio (pull-down/input)
GATGATTGTTCTCCCAGCTGATGAATTTAGACAATCGAGTAAACAAATTTTCCTAATCTTTCTGTTCAAGCGCCATCTAC | 1.53 RPM ratio (pull-down/input)
GATGATTGTTCTCCCAGCTGATGAATTTCCATTGTCGAGTAAACAAATTTTCCTAATCTTTCTGTTCAAGCGCCATCTAC | 0.931 RPM ratio (pull-down/input)
GATGATTGTTCTCCCAGCTGATGAATTCTGTAAATCGAGTAAACAAATTTTCCTAATCTTTCTGTTCAAGCGCCATCTAC | 1.18 RPM ratio (pull-down/input)
GATGATTGTTCTCCCAGCTGATGAATTCTTCAAGTCGAGTAAACAAATTTTCCTAATCTTTCTGTTCAAGCGCCATCTAC | 0.861 RPM ratio (pull-down/input)
GATGATTGTTCTCCCAGCTGATGAATTGGTTTCCTCGAGTAAACAAATTTTCCTAATCTTTCTGTTCAAGCGCCATCTAC | 0.889 RPM ratio (pull-down/input)
GATGATTGTTCTCCCAGCTGATGAATTACGGCGTTCGAGTAAACAAATTTTCCTAATCTTTCTGTTCAAGCGCCATCTAC | 1.01 RPM ratio (pull-down/input)
GATGATTGTTCTCCCAGCTGATGAATTCGAGTACTCGAGTAAACAAATTTTCCTAATCTTTCTGTTCAAGCGCCATCTAC | 0.869 RPM ratio (pull-down/input)
GATGATTGTTCTCCCAGCTGATGAATTTATCAATTCGAGTAAACAAATTTTCCTAATCTTTCTGTTCAAGCGCCATCTAC | 1.16 RPM ratio (pull-down/input)
GATGATTGTTCTCCCAGCTGATGAATTCGCGCCCTCGAGTAAACAAATTTTCCTAATCTTTCTGTTCAAGCGCCATCTAC | 0.812 RPM ratio (pull-down/input)
GATGATTGTTCTCCCAGCTGATGAATTCAAGCAATCGAGTAAACAAATTTTCCTAATCTTTCTGTTCAAGCGCCATCTAC | 1.13 RPM ratio (pull-down/input)
GATGATTGTTCTCCCAGCTGATGAATTTTCGCCGTCGAGTAAACAAATTTTCCTAATCTTTCTGTTCAAGCGCCATCTAC | 0.852 RPM ratio (pull-down/input)
GATGATTGTTCTCCCAGCTGATGAATTTGTTTTATCGAGTAAACAAATTTTCCTAATCTTTCTGTTCAAGCGCCATCTAC | 1.78 RPM ratio (pull-down/input)
GATGATTGTTCTCCCAGCTGATGAATTACTTAAGTCGAGTAAACAAATTTTCCTAATCTTTCTGTTCAAGCGCCATCTAC | 1.09 RPM ratio (pull-down/input)

Sequence | binding signal
GATGATTGTTCTCCCAGCTGATGAATTGTCCCGTTCGAGTAAACAAATTTTCCTAATCTTTCTGTTCAAGCGCCATCTAC | 0.975 RPM ratio (pull-down/input)
GATGATTGTTCTCCCAGCTGATGAATTTTGCAAATCGAGTAAACAAATTTTCCTAATCTTTCTGTTCAAGCGCCATCTAC | 1.09 RPM ratio (pull-down/input)
GATGATTGTTCTCCCAGCTGATGAATTACGTCGGTCGAGTAAACAAATTTTCCTAATCTTTCTGTTCAAGCGCCATCTAC | 0.929 RPM ratio (pull-down/input)
GATGATTGTTCTCCCAGCTGATGAATTAGTAGCATCGAGTAAACAAATTTTCCTAATCTTTCTGTTCAAGCGCCATCTAC | 1.23 RPM ratio (pull-down/input)
GATGATTGTTCTCCCAGCTGATGAATTACAGGAATCGAGTAAACAAATTTTCCTAATCTTTCTGTTCAAGCGCCATCTAC | 1.18 RPM ratio (pull-down/input)
GATGATTGTTCTCCCAGCTGATGAATTAAGACAATCGAGTAAACAAATTTTCCTAATCTTTCTGTTCAAGCGCCATCTAC | 1.29 RPM ratio (pull-down/input)
GATGATTGTTCTCCCAGCTGATGAATTGGAGTGTTCGAGTAAACAAATTTTCCTAATCTTTCTGTTCAAGCGCCATCTAC | 0.947 RPM ratio (pull-down/input)
GATGATTGTTCTCCCAGCTGATGAATTTACTCTGTCGAGTAAACAAATTTTCCTAATCTTTCTGTTCAAGCGCCATCTAC | 1.22 RPM ratio (pull-down/input)
GATGATTGTTCTCCCAGCTGATGAATTATGTGGTTCGAGTAAACAAATTTTCCTAATCTTTCTGTTCAAGCGCCATCTAC | 1.07 RPM ratio (pull-down/input)
GATGATTGTTCTCCCAGCTGATGAATTGGGTTCTTCGAGTAAACAAATTTTCCTAATCTTTCTGTTCAAGCGCCATCTAC | 0.826 RPM ratio (pull-down/input)
GATGATTGTTCTCCCAGCTGATGAATTGGGTACGTCGAGTAAACAAATTTTCCTAATCTTTCTGTTCAAGCGCCATCTAC | 0.832 RPM ratio (pull-down/input)
GATGATTGTTCTCCCAGCTGATGAATTGTGTCTTTCGAGTAAACAAATTTTCCTAATCTTTCTGTTCAAGCGCCATCTAC | 1.22 RPM ratio (pull-down/input)
GATGATTGTTCTCCCAGCTGATGAATTCAAAAACTCGAGTAAACAAATTTTCCTAATCTTTCTGTTCAAGCGCCATCTAC | 0.865 RPM ratio (pull-down/input)
GATGATTGTTCTCCCAGCTGATGAATTCGCTTGATCGAGTAAACAAATTTTCCTAATCTTTCTGTTCAAGCGCCATCTAC | 0.889 RPM ratio (pull-down/input)
GATGATTGTTCTCCCAGCTGATGAATTAACTTGTTCGAGTAAACAAATTTTCCTAATCTTTCTGTTCAAGCGCCATCTAC | 0.918 RPM ratio (pull-down/input)
GATGATTGTTCTCCCAGCTGATGAATTGAAAGCATCGAGTAAACAAATTTTCCTAATCTTTCTGTTCAAGCGCCATCTAC | 1.2 RPM ratio (pull-down/input)
GATGATTGTTCTCCCAGCTGATGAATTTCCGTTTTCGAGTAAACAAATTTTCCTAATCTTTCTGTTCAAGCGCCATCTAC | 1.01 RPM ratio (pull-down/input)
GATGATTGTTCTCCCAGCTGATGAATTTGGGACATCGAGTAAACAAATTTTCCTAATCTTTCTGTTCAAGCGCCATCTAC | 0.977 RPM ratio (pull-down/input)
GATGATTGTTCTCCCAGCTGATGAATTAGGTCCCTCGAGTAAACAAATTTTCCTAATCTTTCTGTTCAAGCGCCATCTAC | 0.835 RPM ratio (pull-down/input)
GATGATTGTTCTCCCAGCTGATGAATTGATCGGATCGAGTAAACAAATTTTCCTAATCTTTCTGTTCAAGCGCCATCTAC | 0.905 RPM ratio (pull-down/input)
